Results from PubChem BioAssay AID1379 (National Center for Advancing Translational Sciences (NCATS), 2008).
Screen size: about 200,000 compounds; about 560 (0.28%) were called active. This list was built around the results that the source calls inconclusive (neither active nor inactive); the mix of calls is not that of the screen. Calls follow the shape of the dose curve; as a rule, active = well fitted inhibition curve with a large enough effect; inconclusive = small, poorly fitted or top-dose-only effect; inactive = flat fitted curve, though single readings scatter. No potency is given beside an inconclusive call; the fits are too rough.

What follows are compounds tested against Luciferin 4-monooxygenase (Photuris pensylvanica) (UniProt Q27757) (assay: Counterscreen for Luciferase (Kinase-Glo TM) Inhibition). Settings: ATP luminescence, 8 min; series mostly up to 38.3 µM.
Description: NCGC Assay Overview: NIH Molecular Libraries Screening Centers Network [MLSCN] NIH Chemical Genomics Center [NCGC] MLSCN Grant: None Luciferase (Kinase-Glo, Promega Corporation) was assayed for its ability to generate light using ATP and luciferin as substrates. The ATP concentration in the assay (10 uM) was within the linear range of enzyme activity for the assay conditions used.
NCGC Assay Protocol Summary: Four uL of substrate mix (final concentration, 50 mM imidazole pH 7.2, 50 mM KCl, 7 mM MgCl2, 10 uM ATP, 0.01% Tween 20, 0.05% BSA) was dispensed into white 1536 well plates. Twenty-three nL of compound was delivered by a pin tool and 2 uL of luciferase detection mix (Kinase-Glo, Promega)) was added. Following 8-minute incubation at ambient temperature, luminescence was measured by a ViewLux (Perkin Elmer) at 5 seconds exposure/plate.
% is scaled to controls: 0 for no effect and ±100 for the full control effect; potency is read from the fitted curve at half-maximal effect; tags tell the direction and shape of the fitted curve.
Also: nearly all actives have a fitted effect of over 60% in size.

| SMILES | Potency | activity change, negative = inhibition |
| --- | --- | --- |
| COC(=O)c1ccc(COC(=O)c2ccccn2)cc1 | inconclusive [inhibitor, partial curve] | – |
| COc1ccc(N=Nc2c(O)[nH]c(=S)[nH]c2=O)cc1 | inconclusive [inhibitor, partial curve] | – |
| Cc1cc(C(=O)N=Nc2c(O)n(C)c3ccccc23)c(C)o1 | inconclusive [inhibitor, single point] | – |
| NC(Cc1cc(O)c(O)cc1O)C(=O)O (configuration not stated) | inconclusive [inhibitor, single point] | – |
| CC1(C)OC(c2ccccc2)=C/C(=C/C=C2C(=O)NC(=S)NC2=O)O1 | inconclusive [inhibitor, single point] | – |
| CCN1/C(=C\C=C\C2=[N+](CC)c3ccccc3C2(C)C)C(C)(C)c2ccccc21 | inconclusive [inhibitor, partial curve] | – |
| COC(=O)C(N)CCCN=C(N)N[N+](=O)[O-] (configuration not stated) | inactive | – |
| CNC(=O)Oc1ccc(-c2cn3cc(C)ccc3n2)cc1 | inconclusive [inhibitor, partial curve] | – |
| Cc1ccc(C(=O)n2c(N)nc3ccccc32)cc1 | active: 11.2 µM | – |
| O=C1NC(=O)C(=O)C(=O)N1 | inactive | – |
| Cc1cc(C=C2C(=O)NC(=S)NC2=O)c(C)n1-c1ccc2c(c1)OCO2 | inconclusive [inhibitor, partial curve] | – |
| CN(C)C(=O)Oc1ccc(-c2cn3cc(Cl)ccc3n2)cc1 | active: 14.1 µM | – |
| Cc1ccc(CN2CC3CC(C2)c2cccc(=O)n2C3)cc1 (configuration not stated) | inactive | – |
| CCOC(=O)C(NC(=O)CC)(Nc1ccc(C(O)(C(=O)OCC)C(F)(F)F)cc1C)C(F)(F)F (configuration not stated) | inactive | – |
| Nc1ccccc1C(=O)OCC(=O)c1ccc2c(c1)OCCO2 | active: 11.2 µM | – |
| Nc1nc2c(ncn2[C@@H]2O[C@H](CO)[C@@H](O)[C@@H]2O)c(=[SH+])[nH]1.O=[N+]([O-])c1ccc(O)[c]([Hg])c1 | active: 2.82 µM | – |
| CCOC(=O)c1ccc(NC(=O)C2C3C=CC(O3)C2C(=O)O)cc1 (configuration not stated) | inactive | – |
| CN(N=O)c1ccc(O)c(O)c1 | inconclusive [inhibitor, partial curve] | – |
| Cc1cc(C(=O)CS(=O)(=O)c2ccc(F)cc2)cc(C)c1OC(=O)N(C)C | inconclusive [inhibitor, single point] | – |
| CCOC(=O)c1c(/N=C/c2c(O)n(-c3ccccc3F)c(=S)[nH]c2=O)sc2c1CCCC2 | inactive | – |
| C[C@]12CC[C@@H]3[C@H](CCC4=CC(=O)CC[C@]43C)[C@]1(O)CC[C@@]2(O)C(=O)CO | – | inactive: -5.22% [at 7.66 µM] |
| COc1ccc(OC)c(N2C(=O)NC(=O)/C(=C/c3ccc([N+](=O)[O-])s3)C2=O)c1 | inconclusive [inhibitor, single point] | – |
| O=C1NC(=O)N(CCc2ccc(F)cc2)C(=O)/C1=C\C=C\c1ccccc1 | inactive | – |
| CN(C)c1ccc(/C=C/c2cc[n+](C)c3ccccc23)cc1 | active: 12.6 µM | – |
| NC1=NC([S][Hg][c]2ccc(N)cc2)c2ncn([C@@H]3O[C@H](CO)[C@@H](O)[C@@H]3O)c2N1 (some centres not stated) | inconclusive [inhibitor, single point] | – |
| O=c1[nH]c(=S)[nH]c(O)c1N=Nc1ccc2c(c1)OCO2 | inconclusive [inhibitor, partial curve] | – |

| SMILES | Potency | activity change, negative = inhibition |
| --- | --- | --- |
| CNC(=O)Oc1cccc(-c2cn3cc(Cl)ccc3n2)c1 | active: 10 µM | – |
| O=C(Nc1cccc(F)c1)N1CCC2(CC1)CCN(C(=O)Oc1ccccc1)CC2 | inactive | – |
| Cc1cccc(N2C(=O)NC(=O)/C(=C/c3ccc([N+](=O)[O-])o3)C2=O)c1 | inconclusive [inhibitor, partial curve] | – |
| CCN1C(=O)/C(=C/c2ccc(N(CC)CC)cc2OC)C(=O)NC1=S | inconclusive [inhibitor, partial curve] | – |
| CCNC(=O)O/N=C(\C)c1sc(-c2ccc(Cl)cc2)nc1C | inconclusive [inhibitor, single point] | – |
| O=C(c1ccc2c(c1)ncn2C1CCCCCC1)N1CCC2(CC1)OCCO2 | inactive | – |
| CN1/C(=C\C=C\C2=[N+](C)c3ccc4ccccc4c3C2(C)C)C(C)(C)c2ccccc21 | inconclusive [inhibitor, partial curve] | – |
| CCc1ccc(CCN2CCCCC2)nc1 | – | inactive: -1.62% [at 7.66 µM] |
| C=CCN1C(=O)/C(=C/c2ccc3c(c2)CCCN3CCC)C(=O)NC1=S | inconclusive [inhibitor, partial curve] | – |
| O=C(CNC(=O)c1ccccc1)Nc1ccc(Br)cc1C(=O)c1ccccc1 | inactive | – |
| CN[C@@H](C)[C@H](O)c1ccccc1 | inconclusive [inhibitor, single point] | – |
| O=c1c2ccccc2[se]n1-c1ccccc1 | active: 10 µM | – |
| Cc1cc(C=C2C(=O)NC(=S)NC2=O)c(C)n1C1CCCC1 | inconclusive [inhibitor, single point] | – |
| COc1ccccc1N=Cc1c(O)n(C)c(=O)n(C)c1=O | inconclusive [inhibitor, single point] | – |
| CCC(C)N1C(=O)/C(=C\c2cc3c4c(c2)CCCN4CCC3)C(=O)NC1=S (configuration not stated) | inconclusive [inhibitor, single point] | – |
| CC(=O)[O][Hg][c]1ccccc1 | active: 12.6 µM | – |
| COC(=O)[C@]1(C)C[C@H]1[C@H](NP(=O)(c1ccccc1)c1ccccc1)c1ccccc1 | inactive | – |
| CN(C)C(=O)Oc1ccc(OC(=O)c2ccccc2)cc1 | inconclusive [inhibitor, partial curve] | – |
| Cc1cc(C)n2nc(SC(C)C(=O)N3CCC4(CC3)OCCO4)nc2n1 (configuration not stated) | inactive | – |
| CC[n+]1c(-c2ccccc2)c2cc(N)ccc2c2ccc(N)cc21 | inconclusive [inhibitor, single point] | – |
| O=C(O)c1cc[c]([Hg][Cl])cc1 | inconclusive [inhibitor, single point] | – |
| COc1ccc(N2C(=O)NC(=O)/C(=C/c3ccc4c(c3)Cc3ccccc3-4)C2=O)cc1 | inactive | – |
| O=c1[nH]c(O)c(N=Nc2ccc3c(c2)OCCO3)c(=O)[nH]1 | inconclusive [inhibitor, single point] | – |
| CN1CCC(OC(=O)Cc2ccccc2)CC1 | inactive | – |
| CCN1C(=O)/C(=C/c2ccc3c(c2)CCN3CCCCl)C(=O)NC1=S | inconclusive [inhibitor, single point] | – |
| COc1ccc(-c2nc3ccccc3c(=O)o2)cc1 | inconclusive [inhibitor, single point] | – |
